Measured values from the supplement of paper PMC12217912.
The list shows a part of the results. Sequences were assembled here from the parent chain. Values near 0.05 are background.

B1: TEV protease; numbered along this chain (parent)
chain: MGESLFKGPRDYNPISSSICHLTNESDGHTTSLYGIGFGPFIITNKHLFRRNNGTLVVQSLHGVFKVKDTTTLQQHLVDGRDMIIIRMPKDFPPFPQKLKFREPQREERICLVTTNFQTKSMSSMVSDTSCTFPSGDGIFWKHWIQTKDGQCGSPLVSTRDGFIVGIHSASNFTNTNNYFTSVPKNFMELLTNQEAQQWVSGWRLNADSVLWGGHKVFMVKPEEPFQPVKEATQL

Variants of: B1
Assay: raw area under fraction-flipped curve 0-4 h after induction (AUC4h, not background-subtracted), DNA-recorder readout of cleavage of the substrate (dimensionless); higher = more cleavage of the substrate by the protease variant
Conditions: temperature: 34 °C; time window: 0-4 h after rhamnose induction
Method: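 In vivo DNA recorder in E. coli TOP10(DE3) ΔrhaA at 34 °C. Each TEVp single-site mutant (parent TEVp 0) is paired with a single-site variant of the 7-mer TEVs (canonical ENLYFQ|S). The substrate sits between flexible linkers in a Bxb1-sfGFP-TEVs-SsrA fusion, so cleavage stabilises Bxb1 and speeds flipping of a recombination array, read by NGS. The value is the raw area under the fraction-flipped curve over 0-4 h after rhamnose induction (AUC4h), with ≥20 reads per time point. It is not background-subtracted; inactive controls average about 0.047.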
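Also: Bxb1 expression induced with 0.2% (w/v) L-rhamnose at OD600 near 0.5, cultures sampled hourly, flipped fraction per protease–substrate barcode pair counted by paired-end Illumina sequencing.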

Variant	area with substrate ENLYFQC	area with substrate ENLYFQD	area with substrate ENLYFQF	area with substrate ENLYFQG	area with substrate ENLYFQH	area with substrate ENLYFQK	area with substrate ENLYFQL	area with substrate ENLYFQM	area with substrate ENLYFQN	area with substrate ENLYFQP	area with substrate ENLYFQQ	area with substrate ENLYFQR	area with substrate ENLYFQS	area with substrate ENLYFQT	area with substrate ENLYFQW	area with substrate ENLYFQY	area with substrate ENLYFQE	area with substrate ENLYFQV	area with substrate ENLYFQI
MGESLFKGPRDYNPISSSICHLTNESDGHTTSLYGIGKGPFIITNKHLFRRNNGTLVVQSLHGVFKVKDTTTLQQHLVDGRDMIIIRMPKDFPPFPQKLKFREPQREERICLVTTNFQTKSMSSMVSDTSCTFPSGDGIFWKHWIQTKDGQCGSPLVSTRDGFIVGIHSASNFTNTNNYFTSVPKNFMELLTNQEAQQWVSGWRLNADSVLWGGHKVFMVKPEEPFQPVKEATQL [F38K]	0.0628	0.0403	0.162	0.0672	0.0567	0.0539	0.0386	0.0503	0.0594	0.0502	0.0483	0.041	0.0601	0.048	0.0593	0.0647			
MGESLFKGPRDYNPISSSICHLENESDGHTTSLYGIGFGPFIITNKHLFRRNNGTLVVQSLHGVFKVKDTTTLQQHLVDGRDMIIIRMPKDFPPFPQKLKFREPQREERICLVTTNFQTKSMSSMVSDTSCTFPSGDGIFWKHWIQTKDGQCGSPLVSTRDGFIVGIHSASNFTNTNNYFTSVPKNFMELLTNQEAQQWVSGWRLNADSVLWGGHKVFMVKPEEPFQPVKEATQL [T23E]	0.0893			0.0815	0.0786	0.0777	0.0627		0.0785	0.0605		0.055	0.0923	0.063		0.0428	0.0537	0.0516	
MGESLFKGPRDYNPISSSICHLTNESDGHTTSLYGIGFGQFIITNKHLFRRNNGTLVVQSLHGVFKVKDTTTLQQHLVDGRDMIIIRMPKDFPPFPQKLKFREPQREERICLVTTNFQTKSMSSMVSDTSCTFPSGDGIFWKHWIQTKDGQCGSPLVSTRDGFIVGIHSASNFTNTNNYFTSVPKNFMELLTNQEAQQWVSGWRLNADSVLWGGHKVFMVKPEEPFQPVKEATQL [P40Q]	0.13			0.123	0.113	0.0633	0.0544	0.0729	0.0927	0.0806		0.0608	0.11	0.0722	0.0541			0.0649	0.0488
MGESLFKGPRDYNPISSSILHLTNESDGHTTSLYGIGFGPFIITNKHLFRRNNGTLVVQSLHGVFKVKDTTTLQQHLVDGRDMIIIRMPKDFPPFPQKLKFREPQREERICLVTTNFQTKSMSSMVSDTSCTFPSGDGIFWKHWIQTKDGQCGSPLVSTRDGFIVGIHSASNFTNTNNYFTSVPKNFMELLTNQEAQQWVSGWRLNADSVLWGGHKVFMVKPEEPFQPVKEATQL [C20L]	0.103	0.0746		0.0674			0.0584	0.0808	0.0898			0.059	0.101	0.0642	0.0691	0.084	0.0537	0.0356	
MGESLFKGPRDYNPISSSICHLTNESDGHTVSLYGIGFGPFIITNKHLFRRNNGTLVVQSLHGVFKVKDTTTLQQHLVDGRDMIIIRMPKDFPPFPQKLKFREPQREERICLVTTNFQTKSMSSMVSDTSCTFPSGDGIFWKHWIQTKDGQCGSPLVSTRDGFIVGIHSASNFTNTNNYFTSVPKNFMELLTNQEAQQWVSGWRLNADSVLWGGHKVFMVKPEEPFQPVKEATQL [T31V]	0.126	0.0429	0.141		0.0762	0.0641	0.0682	0.104	0.0781	0.0647			0.117	0.0703	0.0584	0.0887			0.0548
MGESLFKGPRDYNPISSSICHLTNESDGHRTSLYGIGFGPFIITNKHLFRRNNGTLVVQSLHGVFKVKDTTTLQQHLVDGRDMIIIRMPKDFPPFPQKLKFREPQREERICLVTTNFQTKSMSSMVSDTSCTFPSGDGIFWKHWIQTKDGQCGSPLVSTRDGFIVGIHSASNFTNTNNYFTSVPKNFMELLTNQEAQQWVSGWRLNADSVLWGGHKVFMVKPEEPFQPVKEATQL [T30R]	0.126		0.0794	0.114	0.105	0.0637		0.0889		0.0664			0.11	0.0605	0.0678	0.074		0.056	0.0798
MGESLFKGPRDYNPISSSICHLTNESDGHTTSLYGISFGPFIITNKHLFRRNNGTLVVQSLHGVFKVKDTTTLQQHLVDGRDMIIIRMPKDFPPFPQKLKFREPQREERICLVTTNFQTKSMSSMVSDTSCTFPSGDGIFWKHWIQTKDGQCGSPLVSTRDGFIVGIHSASNFTNTNNYFTSVPKNFMELLTNQEAQQWVSGWRLNADSVLWGGHKVFMVKPEEPFQPVKEATQL [G37S]	0.0858	0.0577		0.0828	0.0675	0.0518	0.0517	0.0617	0.0541			0.0604	0.0797	0.0347	0.0548	0.061		0.0437	0.0749
MGESLFKGPRDYNPISSSICHLTNESDGHTTSLYGIGFGPFIITPKHLFRRNNGTLVVQSLHGVFKVKDTTTLQQHLVDGRDMIIIRMPKDFPPFPQKLKFREPQREERICLVTTNFQTKSMSSMVSDTSCTFPSGDGIFWKHWIQTKDGQCGSPLVSTRDGFIVGIHSASNFTNTNNYFTSVPKNFMELLTNQEAQQWVSGWRLNADSVLWGGHKVFMVKPEEPFQPVKEATQL [N45P]	0.0669	0.0412		0.094		0.0861	0.044	0.0693	0.087				0.0816			0.0372			0.0467
MGESLFKGPRDYNPISSSICHLTNESDQHTTSLYGIGFGPFIITNKHLFRRNNGTLVVQSLHGVFKVKDTTTLQQHLVDGRDMIIIRMPKDFPPFPQKLKFREPQREERICLVTTNFQTKSMSSMVSDTSCTFPSGDGIFWKHWIQTKDGQCGSPLVSTRDGFIVGIHSASNFTNTNNYFTSVPKNFMELLTNQEAQQWVSGWRLNADSVLWGGHKVFMVKPEEPFQPVKEATQL [G28Q]	0.132			0.177		0.106	0.0534	0.0735	0.0712	0.0539	0.0591	0.0636	0.0895	0.0618	0.0635	0.0753	0.0511	0.0982	0.061
